The subject of this assay is Plasmodium falciparum. The assay can be described thus: Primary screen in NF54 nanoGlo assay, in single point, at 2uM, 72h; a lower Z score goes with more inhibition. Format: functional, Erythrocyte. As to conditions: timepoint 72 hour.

SMILES strings stand for the structures. “And” between values parts separate entries of the source, which are not always exact repeats. Equal entries are not always repeated. In all, about 150,000 compounds went through this assay and about 540 (0.36%) showed an effect of 50% or more. This is one part of the list.

Results on 86 molecules are retold here after ChEMBL document CHEMBL4888484, “Replenishing the malaria drug discovery pipeline: Screening and hit evaluation of the MMV Hit Generation Library 1 (HGL1) against asexual blood stage Plasmodium falciparum ,using a nano luciferase reporter read-out” (2022).

As a reminder, the % Inhibition is the drop in the measured response relative to a control, in per cent.

`CCOC(=O)c1nc(CNC(=O)OC(C)(C)C)sc1N`: the “% Inhibition” value is given as -6% and the Z score came out at 0.62.
The corresponding values for `O=C1OCCCN1CCn1ccnc1-c1cnc(N2CCCC2)s1` are -10% and 2.02.
Take `Cc1nc(C(=O)NC2CCN(C(C)C)C2c2ccc(F)c(F)c2)c[nH]1` (configuration not stated): the “% Inhibition” value is recorded as -2% and the Z score is 0.28.
As for `COc1ccc(CN2C[C@H]3CC[C@@H](C2)N(CC(=O)N(C)C)C3)cc1`, the “% Inhibition” value was -5% and the Z score amounted to 0.54.
On the same counts, the results for `CCOC1CC(C(=O)Nc2cc(C3CCOCC3)[nH]n2)C1` (configuration not stated) are -6% and 0.61.
The corresponding values for `Cc1nc(N2CCC(N[C@@H](C)c3csc(C)n3)CC2)c2ccsc2n1` are -11% and 1.11.
`Cc1cc(NC(=O)N2CC(S(=O)(=O)NC3CCCC3)C2)nn1C`: the “% Inhibition” value is 1% and the Z score is listed as -0.12.
Consider `COc1ccc(-c2noc(-c3ccc(N4CCC(N5CCCCC5)CC4)nn3)n2)cc1`, for which the “% Inhibition” value is -19% and the Z score stood at 2.7.
The corresponding values for `CN(CCN(C)C1CCCC1)C(=O)c1ccncc1O` are -3% and 0.55.
In the case of `CN(CCc1ccc(Br)cc1)C(=O)c1cccn1C1CCNCC1`, the “% Inhibition” value was -1% and the Z score was 0.13.
The corresponding values for `COc1cc(F)c(CN2CCC[C@](CC3CC3)(C(=O)O)C2)cc1OC` are -8% and 1.3.
The corresponding values for `Cc1nc2c(C(=O)N3C[C@@H](F)[C@@H](F)C3)cccc2o1` are -6% and 0.76.
The corresponding values for `O=C(NCCn1c(=O)[nH]c2ncccc2c1=O)C1CCOCC1` are -17% and 2.84.
Turning to `CC(=O)N[C@@H](CCC(N)=O)c1nc(-c2ccncc2)nn1C1CCCCC1`, the “% Inhibition” value was 3% and the Z score is listed as -0.43.
On the same counts, the results for `Cc1nc(CCN2CCCN(CC(=O)N3CCCC3)CC2)cs1` are -1% and 0.2.
The corresponding values for `CC1CC(NC(=O)N2C[C@H]3CCN(Cc4ccccc4)[C@H]3C2)c2nccn21` (some centres not stated) are -12% and 1.89.
On the same counts, the results for `CC(NC1CCCc2occc21)c1nccn1C` (configuration not stated) are -15% and 2.04.
Turning to `NS(=O)(=O)c1cc(Cl)ccc1F`, the “% Inhibition” value was -1% and the Z score is 0.08.
Consider `CCn1nc(CC(C)C)cc1C(=O)N1CCCC[C@@H]1CN1CCCC1`, for which the “% Inhibition” value is listed as -4% and the Z score was found to be 0.52.
With `Cc1cc(CS(=O)(=O)[C@@H](C)C(=O)Nc2cc(C)on2)no1`, the “% Inhibition” value was -5% and the Z score stood at 1.01.
The corresponding values for `Cn1c2ccccc2c2cc(S(=O)(=O)N3CCc4ccccc43)ccc21` are -10% and 1.91.
On the same counts, the results for `CCn1c(=O)c2c(ncn2Cc2ccccc2C)n(-c2cccc(C)c2)c1=O` are 1% and -0.11.
On the same counts, the results for `CCC1CCC(N(CCO)Cc2cncnc2)CC1` (configuration not stated) are -15% and 1.7.
Turning to `Cc1ccc(-c2cc(NC(=O)Nc3ccc(F)cc3C)[nH]n2)o1`, the “% Inhibition” value is -7% and the Z score is 1.17.
As to `O=C(Nc1cc[n+]([O-])c(Cl)c1)N1CCCc2ccccc21`, the “% Inhibition” value amounted to 9% and the Z score is on record as -1.03.
On the same counts, the results for `CCCc1nc(N(C)CC2CCN(CC(C)C)CC2)no1` are -2% and 0.34.
On the same counts, the results for `Cc1nccnc1N1CC[C@@]2(CCCN(CC3CCC3)C2=O)C1` are -7% and 0.62.
On to `Cc1nnc(-c2ccc(S(=O)(=O)N3CCOCC3)o2)o1`, for which the “% Inhibition” value came out at 1% and the Z score was -0.13.
The corresponding values for `NC(=O)c1ccc(C(=O)NC2CNCCC2c2ccc(F)cc2)s1` (configuration not stated) are -5% and 0.95.
With `CC[C@@H](Cn1cnc(-c2ccccc2)c1-c1cnn(CC)c1)N1CCN(C)CC1`, the “% Inhibition” value is reported as 3% and the Z score was -0.72.
In the case of `CCOC1CC(CO)(NC(=O)c2ccccc2)C1(C)C` (configuration not stated), the “% Inhibition” value is recorded as -6% and the Z score came to 1.07.
In the case of `COc1ccc(CN2CCN(c3ccc(NC(=O)Cc4ccccc4)cn3)CC2)cc1`, the “% Inhibition” value is given as 0% and the Z score came out at 0.04.
The corresponding values for `CCOC(C)(C)C(=O)N[C@@H](CC)c1nccs1` are -8% and 1.45.
Turning to `CCN1C(=O)[C@@H]2CN(C(=O)OC(C)(C)C)CCCN2C1=O`, the “% Inhibition” value is on record as -15% and the Z score is given as 1.56.
Take `Cc1nn(C)cc1-c1nnc(-c2ccccc2)o1`: the “% Inhibition” value was determined as 35% and the Z score is on record as -5.02.
As to `CCCC(=O)N1CCC(N[C@@H](C)c2ncccc2C)CC1`, the “% Inhibition” value is recorded as -2% and the Z score is recorded as 0.32.
On the same counts, the results for `COc1ccccc1O[C@H]1CCCN(c2nc(C)ns2)C1` are -1% and 0.31.
Regarding `Cc1nc(N2CCC(c3nc(-c4ccccc4)no3)CC2)c2c(C)noc2n1`, the “% Inhibition” value was found to be 35% and the Z score is -9.85.
On the same counts, the results for `COc1cc(OC)nc(-n2nc(C)cc2C(=O)Nc2ccc(Cl)cc2)n1` are 40% and -1.46.
Consider `CN(Cc1cscn1)c1ncc(Cl)cc1Br`, for which the “% Inhibition” value was -4% and the Z score worked out at 0.43.
The corresponding values for `CCc1ccc(CN2CCN(C(C)=O)[C@H]3CS(=O)(=O)C[C@H]32)cc1` are -4% and 0.46.
On the same counts, the results for `Cc1cccc(-c2nnc(N3CC[S+]([O-])CC3)n2C)n1` are -12% and 1.62.
On the same counts, the results for `COc1ccc(C2(c3nc(C4CC4)no3)CCOCC2)cc1` are 2% and -0.33.
Consider `NS(=O)(=O)c1ccc(CCNC(=O)C2CN(C(=O)COc3ccccc3F)C2)cc1`, for which the “% Inhibition” value is -12% and the Z score was 1.35.
The corresponding values for `Cc1cc(C)c(NC(=O)CN(C)S(C)(=O)=O)c(C)c1` are -1% and 0.19.
On the same counts, the results for `Cc1cc(N2C[C@@H]3OC(=O)N(C4CCN(C(C)C)CC4)[C@@H]3C2)ncn1` are 1% and -0.15.
On the same counts, the results for `COc1ccc([C@H](C(=O)Nc2ccc(N(C)C)cc2)N(Cc2ccccc2C)C(=O)CN2C(=O)C(=O)c3ccccc32)cc1OC` are 33% and -3.77.
Take `CC(C)CC1(NC(=O)c2cccc(CC(=O)O)c2)CC1`: the “% Inhibition” value was -3% and the Z score came to 0.36.
On the same counts, the results for `CCn1cc(NC(=O)C2CCN(C(=O)CC[C@H]3CCCO3)CC2)cn1` are 20% and -2.58.
On the same counts, the results for `O=C(COc1ccc(-c2ccccc2)cc1)NC[C@H]1CCCO1` are -11% and 2.03.
For the molecule `Cc1ccc(NCc2ncc(C)n2C)c(C)n1`, the “% Inhibition” value was -8% and the Z score is listed as 1.46.
Consider `O=C1OC(=O)c2ccc(N3CCOCC3)c3c(N4CCOCC4)ccc1c23`, for which the “% Inhibition” value is on record as -15% and the Z score is on record as 1.65.
On the same counts, the results for `CCn1nccc1NC(=O)Cn1cc(-c2cc(N)nc(N(C)C)n2)cn1` are -5% and 0.93.
On the same counts, the results for `CC(=O)N1CCc2cc(N[C@@H](C)C(=O)Nc3ccc(C)cc3Br)ccc21` are -2% and 0.13.
Take `CCc1oc(C(=O)N2CCN(C(=O)CN3CCOCC3)CC2)cc1C`: the “% Inhibition” value is on record as 2% and the Z score was -0.34.
With `CCn1nc(C)c2c1c(=O)n(Cc1ccc(F)cc1)c(=O)n2CC(=O)Nc1cc(C)ccc1C`, the “% Inhibition” value is given as -12% and the Z score was 1.17.
On the same counts, the results for `Clc1ccc([C@@H]2C=C(c3ccccc3)N=C3NC=NN32)c(Cl)c1` are -16% and 1.83.
Consider `COc1cccc(-c2nc3ccc(C(=O)N[C@@H](C)Cc4cccnc4)cc3o2)c1`, for which the “% Inhibition” value is reported as -17% and the Z score is reported as 2.35.
On the same counts, the results for `COc1ccc(Nc2cc(NCC3(O)CCC3)ncn2)c(OC)c1` are -11% and 1.16.
With `COc1cccc2c1CCc1c(C(=O)Nc3nnn[nH]3)n[nH]c1-2`, under “2 µM”, the “% Inhibition” value was 8% and 10%; the Z score is -1.03 and -1.23.
On to `CCOC(=O)N1CCC(N[C@H](c2nnc3ccccn23)C(C)C)CC1`, for which the “% Inhibition” value is on record as -2% and the Z score worked out at 0.28.
The corresponding values for `O=C1ON(c2ccccc2)[C@@H](c2cccc(Br)c2)N1c1ccccc1` are -1% and 0.18.
The corresponding values for `CCNc1nc(N)c(C(=O)OC)s1` are -6% and 0.59.
For `FC(F)(F)c1ccnc(NC2CCCCCC2)n1`, the “% Inhibition” value is -7% and the Z score was 0.87.
On the same counts, the results for `Cc1cccc(O[C@H]2CCN(S(=O)(=O)C3CC3)C2)n1` are -11% and 2.17.
On the same counts, the results for `CC(C)=CCC[C@@]1(C)CCC(=O)N(Cc2csc(N(C)C)n2)C1` are -7% and 1.36.
On the same counts, the results for `CCN(CCOc1ccccc1F)C(=O)c1cccn1C` are -11% and 1.35.
Take `C[C@@H](CN(C)CC1(CO)CCOCC1)c1ccccc1`: the “% Inhibition” value is -11% and the Z score is 1.48.
On the same counts, the results for `Cc1ccsc1C(=O)N[C@H]1CCOC[C@@H]1OCCO` are 2% and -0.33.
The corresponding values for `Cc1ccccc1NS(=O)(=O)[C@H]1CCS(=O)(=O)C1` are -10% and 1.14.
The corresponding values for `COc1ccc(-c2nnc(NC(=O)c3ccoc3C)[nH]2)cc1OC` are -8% and 1.37.
On to `O=C(Nc1ccccc1)Nc1cnc(N2CCCC2)nc1`, for which the “% Inhibition” value is -6% and the Z score amounted to 1.08.
Consider `CC(C)CN(Cc1ccsc1)C[C@@H](O)Cc1ccccc1`, for which the “% Inhibition” value worked out at 4% and the Z score is -0.55.
For the molecule `Cc1noc(C)c1[C@@H](C)CNC(=O)C(=O)c1ccc(Cl)cc1`, the “% Inhibition” value is recorded as 2% and the Z score is listed as -0.29.
The corresponding values for `Cc1c(Cl)cccc1NC(=O)c1nnn(CC(=O)NCc2ccc3c(c2)OCO3)c1C` are -4% and 0.52.
Turning to `Cn1nnc2c1CC(C(=O)NC1CCCc3sc(Cl)cc31)CC2` (configuration not stated), the “% Inhibition” value is recorded as -14% and the Z score worked out at 1.93.
The corresponding values for `NC(=O)[C@H]1CCCN(c2ccnc(C(=O)NCc3ccccc3)c2)C1` are 33% and -0.45.
On the same counts, the results for `O=C(NC1CCCC1)c1ccc(COCC(F)(F)C(F)F)o1` are -4% and 0.56.
On the same counts, the results for `COC(=O)C1CCN(C(=O)[C@@H]2Cc3ccccc3O2)CC1` are -4% and 0.6.
For `N#Cc1c[nH]c(C(=O)N2CCN3C(=O)CC[C@H]3C2)c1`, the “% Inhibition” value was -3% and the Z score is listed as 0.33.
On the same counts, the results for `CC[C@@]1(c2ccc(NC(=O)c3ccc4c(c3)OCO4)cc2)CCC(=O)NC1=O` are 5% and -0.8.
On to `CCN1CCCN(S(=O)(=O)Cc2ccccc2)CC12CCOCC2`, for which the “% Inhibition” value was found to be 4% and the Z score was -0.52.
The corresponding values for `O=C([C@H]1NCC12CCCC2)N1CCn2ncc(Br)c2C1` are -3% and 0.46.
On to `COCC1(O)CN(C(=O)Nc2cnn([C@@H](C)c3ccccc3)c2)C1`, for which the “% Inhibition” value is -5% and the Z score is listed as 0.89.
On to `C[C@H]1CN(C(=O)OC2CCCC2)CCN1c1cnccn1`, for which the “% Inhibition” value is -11% and the Z score is reported as 1.86.
On the same counts, the results for `CC[C@H](C)CNC(=O)c1n[nH]c2c1CN(C(=O)c1ccccc1C)CC2` are 4% and -0.81.
